Assay results reported in PubChem BioAssay AID624171 (National Center for Advancing Translational Sciences (NCATS), 2012).
In all, about 410,000 compounds went through this assay and about 1,200 (0.29%) were called active. Inconclusive results (about 2%) are left out. Calls follow the shape of the dose curve; as a rule, active = well fitted activation curve with a large enough effect; inconclusive = small, poorly fitted or top-dose-only effect; inactive = flat fitted curve, though single readings scatter. Only a part is listed here, and it is no random draw. A structure can be active in one record and inactive in another.

Assay: qHTS of Nrf2 Activators; also: nearly all actives have a fitted effect of over 65% in size; as to activation: % of control where 0% means no effect
Details: AREc32 ARE-luciferase reporter (MCF7-derived line), luminescence, 24 h; series mostly up to 46.1 µM; activation: at the top concentration
Excerpt: Many diseases have some form of oxidative stress injury and ties to inflammation, causing a host of problems for the patient. The antioxidant response element (ARE) plays an important role in alleviating the harmful effects of oxidative stress. The antioxidant response element (ARE) is a transcriptional regulatory element involved in the activation of genes coding for a number of antioxidant proteins and detoxifying enzymes. These enzymes work in concert to protect tissues from oxidative insults and chemical toxicities in human hepatocytes and immune cells. The protective effects of ARE activation are primarily triggered through Nrf2 (NF-E2-related factor) binding to and activating AREs. It is known that Nrf2 controls the production of over 250 antioxidant and detoxification proteins (Hu et al., 2006), thereby protecting tissues by increasing cellular antioxidant content and suppressing inflammatory signaling pathways. The transcription factor Nrf2 is a central link between oxidative chemicals, such as phenolic antioxidants and electrophilic compounds, and the activation of ARE. Nrf2 levels are constitutively low as a consequence of its interaction with Keap1, which targets its degradation (Zipper and Mulcahy, 2002). Electrophiles react with key cysteine residues in Keap1, releasing Nrf2 and allowing its translocation to the nucleus. Once within the nucleus, Nrf2 complexes with coactivators such as p300, and binds to the AREs to induce gene transcription of cytoprotective enzymes, resulting in the prevention of toxicity. Activation of Nrf2 protects tissues by increasing cellular antioxidant content and suppressing inflammatory signaling pathways. Identifying novel and potent Nrf2 activators by using the AREc32 cell line to detect ARE activation by small molecules will lead to the identification and development of probes to study protective pathways in multiple tissues. These specific probes are essential to study the ARE pathway, and eventually to determine whether this pathway does activate genes that could protect against a host of diseases, including cardiovascular diseases, obesity, diabetes, Alzheimer's, and Parkinson's disease.
This project's aim is to identify novel and potent Nrf2 activators by using the AREc32 cell line to detect ARE activation by small molecules, which will lead to the identification and development of probes to study the ARE pathway.
NIH Chemical Genomics Center [NCGC]
NIH Molecular Libraries Probe Centers Network [MLPCN]
Assay Submitter (PI): Curtis Klaassen, University of Kansas Medical Center
5 uL of 1000 cells/well of AREc32_Fluc cells are seeded into 1536-well plate in OPTI-MEM medium with 5% FBS. The plates are incubated overnight at 37 deg C with 5% CO2. Then through pin tool transfer, 23 nL of compounds are added to each well before a 24 hr incubation at 37 deg C with 5% CO2. After the addition of 2.5 uL of Steady-Glo. the plates are kept at RT for 30 min, before they are read on the ViewLux.
Potency is read from the fitted curve at half-maximal effect.

activation, inactive:
CN1c2ccccc2C(C)(C)C12C=Cc1cc(O)ccc1O2 (stereo not given) 12.2%
O=C(Nc1nnc([C@H]2C[C@H](O)[C@@H](CO)O2)s1)c1cccc(OC(F)(F)F)c1 15.5%
COC(C[C@H]1O[C@H]1C(=O)[C@@H](C)OCc1ccccc1)OC 3.08%
CCCCN(CC)CCCNC(=O)c1cc2c(-c3ccc(OC)c(OC)c3)nn(C)c2s1 9.01%
CCOc1cccc(CNc2ccc(O)cc2)c1OCc1ccccc1Cl 6.63%
Cc1ccc(C2C(C#N)=C(N)Oc3cc(C)oc(=O)c32)o1 (stereo not given) 11.7%
COC(C[C@@H]1O[C@@H]1C(=O)[C@H](C)OCc1ccccc1)OC 0.628%
O=C(/C=C/c1ccco1)Oc1cccc2cccnc12 14.3%
Cc1ccn2c(Nc3ccc4c(c3)OCO4)c(-c3ccc(O)cc3)nc2c1 21.3%
COc1cccc(NC(=O)CSc2c3c(nc4ccccc24)CCCC3)c1 -2.63%
Cc1c(N2C(=O)/C(=C\C3CC=CCC3)SC2=S)c(=O)n(-c2ccccc2)n1C (stereo not given) 25.3%
CC[n+]1c(/C=C2/C=C(C)CC(C)C2)sc2ccccc21 (stereo not given) 21.6%
COCCCNC(=O)CSc1c2c(nc3ccc(Cl)cc13)CCCC2 26.3%
O=C(CCN1C(=O)/C(=C\c2ccccc2)SC1=S)NCCCN1CCOCC1 4.08%
Cc1ccc2nc(-c3ccc(O)cc3)c(Nc3ccc4c(c3)OCCO4)n2c1 16.3%
CCC1CCCCN1CCCNC(=O)c1cc2c(Cl)nc3ccccc3c2s1 (stereo not given) 16.7%
O=C1NC(=O)/C(=C/c2ccccc2OCc2ccccc2)S1 13.3%
COC(=O)N1C(=O)[C@@](c2ccccc2)(C2CCCCC2)N1C(=O)OC 10.6%
NC(=O)C1=C[C@H](c2csc3ccccc23)C[C@H](OCc2ccc(CO)cc2)O1 7.1%
COc1ccccc1/C=C/c1nc(C#N)c(N(C)C)o1 17.6%
Cc1ccccc1NC(=O)c1cc2ccccc2o1 25.6% [at 9.22 µM]
Cc1cc(C)nc(N/N=C/C2=C(N3CCOCC3)C(=C\c3ccc(Cl)cc3)/CC2)n1 21.6%
N#C/C(=C\C=C\c1ccccc1)C(=O)Nc1ccccc1 14.3%
NC(=O)c1ccsc1NC(=O)COC(=O)C1CCCN1C(=O)c1cccs1 (stereo not given) 29.2%
COc1ccccc1/C=C\C=N\NC(=O)c1ccco1 6.42%
O=C1/C(=C/c2cccnc2)SC(=S)N1C1CCS(=O)(=O)C1 (stereo not given) 18.6%
Cn1c(=O)n(C)c2cc(NS(=O)(=O)c3ccc(F)cc3)ccc21 16.1%
CC1CCCCC1NC(=O)COC(=O)c1c2c(nc3ccccc13)/C(=C\c1ccco1)CC2 (stereo not given) 20.3%
Oc1ccc(NCc2ccccc2OCc2ccccc2F)cc1 25.4%
O=C(Nc1nnc([C@H]2C[C@H](O)[C@@H](CO)O2)s1)c1cccc(C(F)(F)F)c1 19.7%
NS(=O)(=O)c1ccc(NC(=O)c2cc(-c3cccs3)nc3ccccc23)cc1 30.5%
O=C(CSc1nnc(SCc2ccccc2)s1)N/N=C/C=C\c1ccco1 22.5%
CCCN1C(=O)S/C(=C/c2ccc(N3CCOCC3)o2)C1=O 19.7%
O=S(=O)(/C(=C\c1ccc(C(F)(F)F)cc1)c1nc2ccccc2[nH]1)c1ccccc1 -2.65%
Cc1nnc(NC(=O)c2nc(S(=O)(=O)Cc3ccccc3)ncc2Cl)s1 -2.84%
O=C(O)CCC(=O)Nc1sc2c(c1C(=O)Nc1ccccc1)CCCCC2 -1.31%
O=C1/C(=C\c2cccs2)SC(=S)N1C1CCS(=O)(=O)C1 (stereo not given) 22%
CCn1c(/C=C/c2ccccc2C)nc2ccccc2c1=O 26.5%
Cc1[nH]nc(N=CC2=C(O)CC(c3ccco3)CC2=O)c1-c1ccccc1 (stereo not given) 11.7%
CCS(=O)(=O)c1ncc(Cl)c(C(=O)Nc2ccc(S(=O)(=O)N(C)c3ccccc3)cc2)n1 -6.09%
O=C(/C=C/c1ccco1)NC(=S)Nc1ccccc1O 26%
O=C(CCCN1C(=O)/C(=C\c2ccccc2)SC1=S)Nc1ccccc1O 23.6%
N#CC1=C(N)C(C#N)(C#N)[C@H](c2ccncc2)[C@H]2CN(C(=O)OCc3ccccc3)CC=C12 4.81%
COc1ccc(/C=C/C(=O)CC(O)(c2ccccc2)C(F)(F)F)cc1 (stereo not given) 17%
CCOC(=O)N1C(=O)[C@@](c2ccc(Cl)cc2)(C(C)C)N1C(=O)OCC 13.2%
O=[N+]([O-])C(/C=C(\Cl)[N+](=O)[O-])=C(N1CCCCC1)N1CCCCC1 6.67% [at 9.22 µM]
O=C(Nc1nnc([C@H]2C[C@H](O)[C@@H](CO)O2)s1)c1cccc(Cl)c1 11.6%
COc1ccccc1-c1nc(-c2ccc(Br)o2)no1 10.2%
COC(=O)c1c(NC(=O)Nc2ccc(Cl)cc2)sc(C)c1C 12%
COC(=O)/C=C1/N/C(=N\c2nc(C)cc(C)n2)N(c2ccc(C)c(C)c2)C1=O 12.2%
O=C1/C(=C/c2ccco2)SC(=S)N1C1CCS(=O)(=O)C1 (stereo not given) 0.198%
Oc1ccccc1/C=N/NC(=S)NC1CC2C=CC1C2 (stereo not given) 8.27%

Potency, active:
O=C(CCc1nc2ccccc2c(=O)[nH]1)Nc1nc(-c2cccs2)cs1 10 µM
O=C(Nc1ccc(Cl)cc1)Nc1ccccn1 10 µM
CCn1c(=O)c([N+](=O)[O-])c(NCc2ccco2)c2ccccc21 8.91 µM
O=[N+]([O-])c1cccc(C=NN=Cc2ccccc2O)c1 10 µM
CSc1nnc(N2C(=O)C(O)=C(C(=O)c3ccco3)C2c2ccccc2F)s1 (stereo not given) 14.1 µM
c1coc(-c2cnc3ccccc3n2)c1 3.98 µM
CC(=O)NN1C(=O)/C(=C\c2ccc(Br)o2)SC1=S 15.8 µM
COc1ccc(NC2=C(Cl)C(=O)N(CCc3ccccc3)C2=O)c(OC)c1 12.6 µM
Cc1ccc(N(C(=O)CCl)C(C(=O)NC2CCCCC2)c2cccnc2)cc1C (stereo not given) 14.1 µM
CCOc1ccc(C(=O)CC(C(=O)O)N2CCCCC2)cc1 (stereo not given) 15.8 µM
COc1ccc(Cl)cc1-c1nc(-c2ccncc2)no1 6.31 µM
CS(=O)(=O)c1nc(S(=O)(=O)c2ccc(Cl)cc2)c(N2CCOCC2)s1 6.31 µM
O=C(NC(=S)Nc1ccccc1Br)c1ccco1 14.1 µM
O=C(Nc1ccccn1)c1csc2c1CCCC2 5.01 µM
O=C1C(=Cc2cccc(F)c2)Cc2ccccc21 10 µM
CCc1ccc(C(=O)Cn2ncc(Cl)c(Cl)c2=O)cc1 10 µM
CSc1ncc(Cl)c(C(=O)Nc2cccnc2)n1 11.2 µM
CSc1nccc(-c2cc(Cl)sc2Cl)n1 11.2 µM
O=C(Cc1cccs1)N/N=C/C=C\c1ccco1 11.2 µM
CC(/C=C(\NC(=O)c1ccccc1)C(=O)N=Nc1c(O)[nH]c2ccc(C)cc12)=C\c1ccccc1 8.91 µM
O=C(Nc1ccccc1F)c1ccc(-c2cccc([N+](=O)[O-])c2)o1 1.41 µM
O=c1[nH]c(O)c(/C=C2\C=Nc3ccc(Br)cc32)[nH]1 10 µM
Cc1cccc(C)c1-n1nnnc1C1c2ccccc2C(=O)N1CCc1ccccc1F (stereo not given) 12.6 µM
